Measured values as given in PubChem BioAssay AID624171 (National Center for Advancing Translational Sciences (NCATS), 2012).
In all, about 410,000 compounds went through this assay and about 1,200 (0.29%) were called active. Inconclusive means that the source gave no clear call. Such entries were picked first, then a sample of the others. Calls come from the whole dose curve; as a rule, active = well fitted activation curve with a large enough effect; inconclusive = small, poorly fitted or top-dose-only effect; inactive = flat fitted curve, though single readings scatter. Where the call is inconclusive, the potency comes from a doubtful curve fit.

Test: qHTS of Nrf2 Activators; note: nearly all actives have a fitted effect of over 65% in size; for activation: % of control where 0% means no effect
Conditions: AREc32 ARE-luciferase reporter (MCF7-derived line), luminescence, 24 h; activation: at 46.1 µM (top of the series)
Source text: Many diseases have some form of oxidative stress injury and ties to inflammation, causing a host of problems for the patient. The antioxidant response element (ARE) plays an important role in alleviating the harmful effects of oxidative stress. The antioxidant response element (ARE) is a transcriptional regulatory element involved in the activation of genes coding for a number of antioxidant proteins and detoxifying enzymes. These enzymes work in concert to protect tissues from oxidative insults and chemical toxicities in human hepatocytes and immune cells. The protective effects of ARE activation are primarily triggered through Nrf2 (NF-E2-related factor) binding to and activating AREs. It is known that Nrf2 controls the production of over 250 antioxidant and detoxification proteins (Hu et al., 2006), thereby protecting tissues by increasing cellular antioxidant content and suppressing inflammatory signaling pathways. The transcription factor Nrf2 is a central link between oxidative chemicals, such as phenolic antioxidants and electrophilic compounds, and the activation of ARE. Nrf2 levels are constitutively low as a consequence of its interaction with Keap1, which targets its degradation (Zipper and Mulcahy, 2002). Electrophiles react with key cysteine residues in Keap1, releasing Nrf2 and allowing its translocation to the nucleus. Once within the nucleus, Nrf2 complexes with coactivators such as p300, and binds to the AREs to induce gene transcription of cytoprotective enzymes, resulting in the prevention of toxicity. Activation of Nrf2 protects tissues by increasing cellular antioxidant content and suppressing inflammatory signaling pathways. Identifying novel and potent Nrf2 activators by using the AREc32 cell line to detect ARE activation by small molecules will lead to the identification and development of probes to study protective pathways in multiple tissues. These specific probes are essential to study the ARE pathway, and eventually to determine whether this pathway does activate genes that could protect against a host of diseases, including cardiovascular diseases, obesity, diabetes, Alzheimer's, and Parkinson's disease.
This project's aim is to identify novel and potent Nrf2 activators by using the AREc32 cell line to detect ARE activation by small molecules, which will lead to the identification and development of probes to study the ARE pathway.
NIH Chemical Genomics Center [NCGC]
NIH Molecular Libraries Probe Centers Network [MLPCN]
Assay Submitter (PI): Curtis Klaassen, University of Kansas Medical Center
5 uL of 1000 cells/well of AREc32_Fluc cells are seeded into 1536-well plate in OPTI-MEM medium with 5% FBS. The plates are incubated overnight at 37 deg C with 5% CO2. Then through pin tool transfer, 23 nL of compounds are added to each well before a 24 hr incubation at 37 deg C with 5% CO2. After the addition of 2.5 uL of Steady-Glo. the plates are kept at RT for 30 min, before they are read on the ViewLux.
Potency is the fitted concentration of half-maximal effect; tags give direction and shape of the fitted curve.

Potency, inconclusive:
COc1cccc(CNC(=O)c2ccc(-n3c(C)cc4c3CCCC4)cc2)c1 15.8 µM [activator, single point], CN1CCN(C2=C(Cl)C(=O)N(c3ccc(Cl)cc3)C2=O)CC1 25.1 µM [activator, single point], O=C1C(=C2CCCCC2)SC(=S)N1Cc1ccco1 31.6 µM [activator, partial curve, poor fit], COc1ccc(NC(=O)c2nn(C)cc2[N+](=O)[O-])cc1 22.4 µM [activator, single point], N/C(=N\OC(=O)c1ccc(Cl)c([N+](=O)[O-])c1)c1ccccn1 20 µM [activator, single point], Nc1nc(-c2ccc(Br)s2)c(Br)s1 15.8 µM [activator, single point], Cc1ccc(-c2csc3ncnc(Sc4nnc(CN5CCCCCC5=O)o4)c23)cc1 3.98 µM [activator, single point], C=C1C2=C(C(=O)N1OC)[C@@H](O)[C@@](C)(O)[C@@H](CCCCC)O2 3.98 µM [activator, full curve, poor fit], O=C(Nc1ccc(N2CCOCC2)cc1)c1ccc([N+](=O)[O-])o1 5.62 µM [activator, single point], O=C(Nc1nnc(-c2cccs2)s1)c1cccc(F)c1 0.891 µM [activator, full curve, poor fit], CC(=O)N1c2ccccc2Oc2cc3ccccc3cc21 12.6 µM [activator, partial curve], C=C1CCC[C@]2(C)C[C@H]3OC(=O)C(CN[C@@H](C)c4ccccc4)[C@H]3CC12 (some centres not stated) 12.6 µM [activator, partial curve, poor fit], C/C(=N\NC(=O)Cc1ccc(Cl)cc1)c1ccccn1 28.2 µM [activator, single point], Oc1ccc(-c2csc(Nc3ccccn3)n2)c(O)c1 12.6 µM [activator, partial curve, poor fit], Oc1ccc(/C=N/Nc2cccc(Cl)n2)c(O)c1 17.8 µM [activator, single point], COc1ccc(CCNC(=O)Nc2ccccc2[N+](=O)[O-])cc1 12.6 µM [activator, partial curve], Cc1cc(O)c(C(=O)/C=C/c2ccc(Cl)cc2)c(=O)o1 35.5 µM [activator, single point], CCS(=O)(=O)c1ncc(Cl)c(C(=O)Nc2ccccc2)n1 3.55 µM [activator, single point], c1csc(-c2cnc3ccccc3n2)c1 17.8 µM [activator, partial curve, poor fit]

Potency, active:
Cc1nc([N+](=O)[O-])c(Br)n1Cc1ccccc1 10 µM, COC(=O)c1ccc2nc(-c3ccco3)c(Cc3ccc(C)cc3)n2c1 11.2 µM

activation, inactive:
C/C(=N\NC(=O)c1ccco1)c1ccc(-c2ccccc2)cc1 5.36%, COC(=O)c1c(-c2ccc(Cl)cc2)noc1N1CCN(c2ccccc2OC)CC1 0.211%, Clc1ccc(CSc2nnc(CNc3cccc(Cl)c3)o2)cc1 0.0043%, CC1=C(c2ccc(C)cc2)S(=O)(=O)NC1=NCc1ccccc1Cl 2.58%, CCCc1cc(N2CCN(c3ccccc3F)CC2)n2cnnc2n1 -0.871%, CCCCN(CCCC)S(=O)(=O)c1ccc(NC(=O)Cc2cccs2)cc1 -0.593%, O=C(NCCc1ccccc1)c1ccc(-c2ccc(F)c(F)c2)c2ccoc12 1.18%, O=[N+]([O-])c1nc2ccccc2[nH]1 0.206%, CC(=O)c1ccccc1OCC(O)Cn1c(CO)nc2ccccc21 (configuration not stated) 0.888%, Cc1ccc(C)c(NS(=O)(=O)c2ccc3oc(=O)ccc3c2)c1 -0.192%, CCCCNC(=O)c1cc(-c2ccc(OC)cc2)nc2n[nH]c(-c3cccc([N+](=O)[O-])c3)c12 -0.839%, O=C(c1ccc(Cl)c(S(=O)(=O)N2CCCCC2)c1)N1CCCCC1 0.226%, COc1ccc(NC(=O)CCCNC(=O)Cn2cnc3sc(C)c(C)c3c2=O)cc1OC -0.445%, CCN(CC)CCCNC(=O)c1nn(C)c2c1CSc1ccccc1-2 -0.466%, FC(F)(F)c1cccc(-c2nn[nH]n2)c1 0.161%, Clc1ccccc1Nc1nc(-c2ccncc2)nc2ccccc12 4.96%
